PubChem BioAssay AID1745845 (National Center for Advancing Translational Sciences (NCATS), 2022)
The campaign covered roughly 360,000 compounds. About 2,600 (0.72%) were called active. Inconclusive results, whose numbers are uncertain, are shown with a selection of clear calls. Calls follow the shape of the dose curve; as a rule, active = well fitted inhibition curve with a large enough effect; inconclusive = small, poorly fitted or top-dose-only effect; inactive = no such curve, though single readings can be large or run the other way. Potencies beside an inconclusive call are fits to weak or partial responses and may not hold up.
% is scaled to controls: 0 for no effect and ±100 for the full control effect; potency is read from the fitted curve at half-maximal effect; tags tell the direction and shape of the fitted curve.

Assay: Primary qHTS for Inhibitors of ATXN expression; also: nearly all actives have a fitted effect of over 55% in size
Conditions: HEK-293 ATXN2-luciferase reporter, luminescence, 24 h; activity change, negative = inhibition: at 57 µM (top of the series)
In short: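 ATXN2-luciferase reporter cells (luciferase flanked by upstream and downstream ATXN2 gene portions) were treated 24 h at 37 °C with compounds at up to 57 uM. SteadyGlo luminescence gave expression; GF-AFC fluorescence gave viability.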
In the case of `CC(C)(C)CC(C)(C)NCC(O)COc1c(F)cc(Br)cc1F` (centres undefined), the Potency is reported as inconclusive: 39.8 µM [inhibitor, single point]. In the case of `COc1ccc(OC)c(NC(=O)CSc2nnnn2-c2ccc3c(c2)OCO3)c1`, the Potency is reported as active: 8.91 µM. With `CN(C)c1cccc(-c2nnc(SCCCC#N)o2)c1` the “activity change, negative = inhibition” value was inactive: -24.3%. In the case of `CN(C)c1ccc(/C=C(\Cl)c2nc3ccccc3s2)cc1`, the Potency is reported as inconclusive: 39.8 µM [inhibitor, single point]. For `COCCn1c(SCC(=O)Nc2ccccc2OC)nc2c(oc3ccccc32)c1=O`, the Potency was inconclusive: 39.8 µM [inhibitor, partial curve, poor fit]. For `C/C(=N\NC(=O)c1ccccc1O)c1cccs1`, the Potency was inconclusive: 15 µM [inhibitor, partial curve, poor fit]. In the case of `Cc1cc2c(c(C)c1CCO[C@@H]1O[C@H](CO)[C@@H](O)[C@H](O)[C@H]1O)C(=O)[C@@H](C)[C@@H]2O`, the Potency is reported as inconclusive: 39.8 µM [inhibitor, single point]. For `Cc1cc(/C=C(\C#N)C(=O)NCCc2c[nH]c3ccccc23)c(C)n1C`, the “activity change, negative = inhibition” value was inactive: -25.1%. In the case of `O=C(O)c1cccc(-c2nc3ccccc3[nH]2)c1`, the Potency is reported as active: 14.1 µM. For `CC(C)C[C@@H](CO)N(Cc1ccccc1)S(=O)(=O)N(Cc1ccccc1)[C@H](CO)CC(C)C`, the Potency was inconclusive: 39.8 µM [inhibitor, single point]. With `CCCCCCCn1ccc(=N)cc1` the Potency was inconclusive: 3.55 µM [inhibitor, partial curve]. In the case of `O=[N+]([O-])c1cc(-c2csc(NC(CO)c3nc4ccccc4n3CCOCCO)n2)ccc1Cl` (centres undefined), the Potency is reported as inconclusive: 25.1 µM [inhibitor, single point]. For `COc1ccc(C)cc1NC(=O)Cn1nc(N2CCN(c3ccccc3OC)CC2)ccc1=O`, the “activity change, negative = inhibition” value was inactive: -28.8%. In the case of `COc1ccc(-c2ccc(SC)nn2)cc1`, the Potency is reported as inconclusive: 11.9 µM [inhibitor, partial curve, poor fit]. For `CCOC(=O)c1c(NC(=O)CN2CCCCC2)sc2c1CCCC2O` (centres undefined), the Potency was inconclusive: 25.1 µM [inhibitor, partial curve, poor fit]. With `CNc1ccc(Br)cc(C(=O)/C=C/c2cccc(Cl)c2Cl)c1=O` the Potency was inconclusive: 37.7 µM [inhibitor, single point]. In the case of `COc1ccc(Cn2c(=O)n(-c3ccc(C)cc3)c(=O)c3c2c2cc(C)ccc2n3C)cc1`, the “activity change, negative = inhibition” value is reported as inactive: -8.27%. With `O=c1[nH]nc(Sc2ncc([N+](=O)[O-])s2)n1-c1ccc2c(c1)OCCO2` the Potency was active: 12.2 µM. For `CN(CC(=O)Nc1ccc(Cl)c(C(F)(F)F)c1)C(=O)c1ccc(N2CCOCC2)c([N+](=O)[O-])c1`, the Potency was inconclusive: 22.4 µM [inhibitor, single point]. For `OCCCNc1nccc(-c2cc(Nc3cccc(Cl)c3)ncn2)n1`, the Potency was inconclusive: 0.891 µM [inhibitor, full curve]. With `CN(C)CCCN(C(=O)c1ccc2ccccc2c1)c1nc2cc3c(cc2s1)OCO3` the Potency was active: 25.1 µM. With `CCOC(=O)c1c(NC(=O)COC(=O)C2CC2C)sc(C)c1C` (centres undefined) the Potency was inconclusive: 23.8 µM [inhibitor, single point]. In the case of `Clc1ccc(-c2c[n+](Cc3ccc(Cl)cc3Cl)c3n2CCCCC3)cc1`, the Potency is reported as inconclusive: 12.6 µM [inhibitor, partial curve, poor fit]. With `COc1cc(OC)c(OC)cc1CNC(=O)c1cccc(S(=O)(=O)N2CCc3ccccc3C2)c1` the Potency was inconclusive: 5.01 µM [inhibitor, partial curve, poor fit]. In the case of `COc1ccc(-c2cn(Cc3ccc4c(c3)C(=O)c3ccccc3C4=O)nn2)cc1`, the “activity change, negative = inhibition” value is reported as inactive: 4.67%. In the case of `COC(=O)[C@]1(C)N[C@H](c2ccc(-c3ccc(Cl)c(Cl)c3)cc2)[C@@H]2C(=O)N(C)C(=O)[C@@H]21`, the Potency is reported as inconclusive: 31.6 µM [inhibitor, single point]. In the case of `Clc1ccc2[nH]c3c(N4CCC5(CC4)OCCO5)ncnc3c2c1`, the Potency is reported as inconclusive: 15.8 µM [inhibitor, partial curve]. In the case of `NC(=S)NN=C1CCCCC12CCCC2`, the Potency is reported as inconclusive: 39.8 µM [inhibitor, single point]. For `CCCCOc1ccc(CSC(=N)N)cc1Cl`, the Potency was active: 25.1 µM. With `CCOC(=O)c1c(C)oc2ccc(N(C(=O)c3ccncc3)S(=O)(=O)c3ccc(F)cc3C)cc12` the Potency was inconclusive: 25.1 µM [inhibitor, single point]. With `Cn1cccc1CC(=O)NNC(=S)NC(=O)c1ccc(F)cc1` the Potency was inconclusive: 35.5 µM [inhibitor, single point]. With `COc1cc(S(=O)(=O)N2CCOCC2)ccc1N` the activity change, negative = inhibition was inconclusive: -43.7% [inhibitor]. With `Cc1ccnc(NC(c2cccc(O)c2)c2ccc3ccc(C)nc3c2O)c1` (centres undefined) the Potency was inconclusive: 39.8 µM [inhibitor, single point]. With `CCOC(=O)c1c(-c2ccccc2)oc2ccc(NS(=O)(=O)c3ccc(C)cc3)cc12` the Potency was inconclusive: 28.2 µM [inhibitor, single point]. For `O=C(c1ccc2c(=O)n(Cc3ccc(Cl)cc3)c(=S)[nH]c2c1)N1CCCC1`, the “activity change, negative = inhibition” value was inactive: 9.05%. With `O=C(C1=C[C@@H](c2csc3ccccc23)C[C@@H](OCc2ccc(CO)cc2)O1)N1CCN(Cc2ccc3c(c2)OCO3)CC1` the Potency was inconclusive: 39.8 µM [inhibitor, partial curve, poor fit]. In the case of `COc1ccc(NC(=O)N(C)[C@H]2C[C@H]3c4[nH]c5ccc(-c6ccc(OC)cc6)cc5c4CCN3C(=O)[C@H]2[C@H](C)O)cc1`, the Potency is reported as inconclusive: 25.1 µM [inhibitor, single point]. In the case of `CCN(CC)S(=O)(=O)c1ccc(-c2nnc(SCC(=O)N3c4ccccc4CC3C)o2)cc1` (centres undefined), the Potency is reported as inconclusive: 6.31 µM [inhibitor, partial curve, poor fit]. With `N#Cc1cc(-c2ccccc2)oc1/N=C/c1ccccc1O` the Potency was inconclusive: 0.141 µM [inhibitor, full curve, poor fit]. In the case of `FC(F)(F)c1cccc(CN2CCC(c3cc(-c4cccs4)n[nH]3)CC2)c1`, the Potency is reported as inconclusive: 18.9 µM [inhibitor, partial curve, poor fit]. In the case of `CC(=O)ON=C1C(c2c(O)[nH]c3cc(Br)ccc23)=Nc2ccccc21`, the Potency is reported as inconclusive: 17.2 µM [inhibitor, partial curve]. For `O=S1(=O)C=C(Sc2nc3ccccc3s2)c2ccccc21`, the Potency was inconclusive: 6.31 µM [inhibitor, single point]. For `CC1=NOC(=O)/C1=C\c1ccc(-c2ccc(Br)cc2)o1`, the activity change, negative = inhibition was inactive: 1.39% [at 11.3 µM]. With `CCCn1c(C)cc(/C=C(\C#N)C(=O)OCC(=O)Nc2ccc(OC)c(Cl)c2)c1C` the “activity change, negative = inhibition” value was inactive: 6.44%. With `CC(C(=O)NCC1CCCCC1)N(C)Cc1ccc(Cl)cc1` (centres undefined) the “activity change, negative = inhibition” value was inactive: -8.14%. For `Cc1ccc(S(=O)(=O)Nc2cccc(C(=O)NCc3cccnc3)c2)cc1F`, the “activity change, negative = inhibition” value was inactive: -12.4%. With `O=C(/C=C/c1ccc(Cl)cc1)NC1CC2CCC1C2` (centres undefined) the activity change, negative = inhibition was inactive: 4.01% [at 11.3 µM]. With `COc1ccc(CCNC(=O)c2cc3sc(Cl)cc3n2C)cc1OC` the Potency was inconclusive: 15.8 µM [inhibitor, partial curve, poor fit]. For `O=C(NC(c1ccccc1)c1cnccn1)C1CCN(Cc2ccc(Cl)c(Cl)c2)CC1` (centres undefined), the Potency was inconclusive: 28.2 µM [inhibitor, partial curve, poor fit]. For `CC(C)N1CCN(Cc2coc3ccccc3c2=O)CC1CCO` (centres undefined), the Potency was inconclusive: 1.5 µM [inhibitor, single point]. With `O=C1c2cccc3cccc(c23)C(=O)N1CC1CCN(CC(O)COc2ccc3ccccc3c2)CC1` (centres undefined) the Potency was inconclusive: 31.6 µM [inhibitor, single point]. For `Cc1ccc(Cl)cc1-n1ncc2c(NC3CCCCC3)ncnc21`, the Potency was inconclusive: 11.2 µM [inhibitor, partial curve, poor fit]. With `CCOC(=O)C1CCCN(S(=O)(=O)c2ccc3c(c2)CCN3C(=O)CC)C1` (centres undefined) the “activity change, negative = inhibition” value was inactive: -8.77%. In the case of `COc1ccc(OC)c(-n2nnnc2SCC(=O)Nc2ccc(C(=O)N3CCCCC3)cc2)c1`, the “activity change, negative = inhibition” value is reported as inactive: -6.2%. With `CCC(CC)C(=O)Nc1cccc(C(=O)Nc2ccc(S(=O)(=O)Nc3ccc(C)cc3)cc2)c1` the Potency was inconclusive: 39.8 µM [inhibitor, single point]. With `O=C(c1ccoc1)N1CCN(c2cc(-c3ccccc3)nc3cc(-c4ccccc4)nn23)CC1` the Potency was inconclusive: 14.1 µM [inhibitor, partial curve, poor fit]. In the case of `CCOc1ccccc1CNC(=O)C(C)n1nc(C)c2c(C)n(-c3ccccc3)nc2c1=O` (centres undefined), the Potency is reported as inconclusive: 17.8 µM [inhibitor, partial curve]. For `CCOC(=O)C1CCN(C(=O)CNC(=O)Cn2c(C)cc3ccccc3c2=O)CC1`, the “activity change, negative = inhibition” value was inactive: 7.77%. For `COc1ccc(Nc2nc(NCC3CCCO3)c3ccccc3n2)c(OC)c1` (centres undefined), the activity change, negative = inhibition was inactive: -27.3% [at 11.3 µM]. With `O=C(Nc1ccccc1N1CCN(C(=O)c2ccccc2)CC1)c1cc(Br)ccc1Cl` the Potency was inconclusive: 15.8 µM [inhibitor, partial curve, poor fit]. For `Cc1cc(C)cc(OCC(=O)Nc2nc(-c3cccnc3)cs2)c1`, the Potency was inconclusive: 20 µM [inhibitor, single point]. With `CCOc1ccccc1C(=O)NCCN1CCC(n2c(=O)[nH]c3ccccc32)CC1` the Potency was inconclusive: 39.8 µM [inhibitor, single point]. In the case of `CCc1ccc(-c2cc(C(=O)Nn3cnnc3)c3ccccc3n2)cc1`, the Potency is reported as inconclusive: 10 µM [inhibitor, partial curve, poor fit]. With `CCc1nc2c(OCc3c(C)noc3C)cccn2c1N(C=O)Cc1ccc(OC)cc1` the Potency was inconclusive: 12.6 µM [inhibitor, partial curve, poor fit].
